Assay results from the RNAGym collection of RNA variant scans (doi:10.1101/gad.245936.114).
Variants at the background level are over-represented here.

B1: tRNA (parent)
chain: CUCUCGGUAGCCAAGUUGGUUUAAGGCGCAAGACUUUAAUUUAUCACUACGAAAUCUUGAGAUCGGGCGUUCGACUCGCCCCCGGGAGAUUUUUUCCUCGAGCAA

Variants of: B1
Experiment: nonsense suppression (GFP-seq) (ratio to wild type); higher = more function; SUP4oc tRNA, yeast GFP reporter sort-seq
Procedure, shortened: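 To measure nonsense suppression, tRNA variants from a library carrying ~3% random mutations were integrated into the yeast genome alongside RFP and a GFP ochre reporter under galactose control. Growth took place in raffinose/galactose medium supplemented with 80 mg/L adenine, followed by sorting into GFP/RFP bins and Illumina sequencing of each bin (phred ≥30). For each variant with ≥100 reads and ≥30 cells, the bin median GFP/RFP values were weighted by its estimated cell share per bin and referenced to the unmutated parent tRNA.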

Variant | nonsense suppression
G15A G65C G88C | ≤ 0.026
G15C A30U U55G G65C G84U | ≤ 0.026
A14G U21C G66C | ≤ 0.026
A14U G32A U70A | ≤ 0.026
A14U U57G | ≤ 0.026
A14U A31C C56G G88A | ≤ 0.026
A14U C75G | ≤ 0.026
A14U G25U | ≤ 0.026
A14U U20A A30C U35A G69U G88U | ≤ 0.026
G15C A31U C34U | ≤ 0.026
A14U G59A U63G | ≤ 0.026
A14U A23C G67U | ≤ 0.026
A14G C82A | ≤ 0.026
A14G A33G U70C G78A | ≤ 0.026
A14U A23U | ≤ 0.026
A14G G67C | ≤ 0.026
A14U C34U C75A | ≤ 0.026
A14U G18C G59A | ≤ 0.026
G15A U16C G66A G67A | ≤ 0.026
A14U U58G G59A G73A | ≤ 0.026
G15C G67C G69U U71C | ≤ 0.026

Variant | nonsense suppression
A14G A62G C75U | ≤ 0.026
A14C U71C G84A | ≤ 0.026
A14U C56G | ≤ 0.026
G15C U17C G67C C83U G88A | ≤ 0.026
A14C U63G C82U A89C | ≤ 0.026
G15C A23G G66A | ≤ 0.026
A14U U35C G61A A74C | ≤ 0.026
A14G G26A G66C | ≤ 0.026
A14U U20C A31U G67U | ≤ 0.026
G15A U22G G26C A62U C82G | ≤ 0.026
A14U U16C G61U G78C | ≤ 0.026
A14U C27U G61C | ≤ 0.026
G15C C27A C34U G61C | ≤ 0.026
G15C G65A C77A | ≤ 0.026
A14U U16C G66C C75U | ≤ 0.026
G15C U17C U63G G65C U76G | ≤ 0.026
A14G U20G C34U C64U | ≤ 0.026
A14G A30G | 0.03
G15A U55G U71G C82U | ≤ 0.026
A14U C34G G65U G69U | ≤ 0.026
A14U U55A G67A | ≤ 0.026

Variant | nonsense suppression
G15C G61A C77G | ≤ 0.026
G15A G69U | ≤ 0.026
A14U U16A C80U | ≤ 0.026
A14G | ≤ 0.026
A14U | ≤ 0.026
A14C G73U G84U | ≤ 0.026
A14C U35C | ≤ 0.026
G15C G65C | ≤ 0.026
A14U C64A A74C A87U | ≤ 0.026
G15C C27U C34U A54C | ≤ 0.026
A14C G26C A54G | ≤ 0.026
A14G G61C C79U | ≤ 0.026
G15C A30U U63A | ≤ 0.026
A14G A24U A89C | ≤ 0.026
G15A A33G C34G C68U G73C | ≤ 0.026
A14G C64A A74U G85C | ≤ 0.026
A14G A87U | ≤ 0.026
A14U C56U G85A | ≤ 0.026
A14U C29U C34G C75A | ≤ 0.026
A14U G32A | ≤ 0.026
A14U G32U | ≤ 0.026

Variant | nonsense suppression
A14U C72G A74C C75A | ≤ 0.026
G15A C27U U63G A89C | ≤ 0.026
A14U G19A C27A | ≤ 0.026
G15A C29A G32U | ≤ 0.026
A14U G32U G61C | ≤ 0.026
A14G C29U U57G U70C G78U | ≤ 0.026
A14U U21A A24G A31C C56G G88A | ≤ 0.026
A14G A24G G61A A62G G86A | ≤ 0.026
A14U U16C U58A G61U C72U | ≤ 0.026
A14C U58G | ≤ 0.026
G15A A60C G66A G88U | ≤ 0.026
A14G C29U | 0.0832
A14G A62U C75G | ≤ 0.026
A14C U63G A87C | ≤ 0.026
A14U U21C A24C G26U A54U G78A | ≤ 0.026
A14U G19C C29G | ≤ 0.026
A14U U16G U55A G78A G85A G86A | ≤ 0.026
A14U A62C C75U | ≤ 0.026
G15C G69U G78A | ≤ 0.026
G15C A33C | ≤ 0.026
